# At least one peptide structure holds a part that was inferred or is arguable (an end, a ring closure or a residue). Square brackets hold non-standard residues; d marks the D form. Ends that are not written are not given here. Peptide text beside a SMILES is read from it. Nle = CCCC[C@H](N)C(=O)O
# Columns and labels:
# [1] = system: Growth Hormone Release; assay: Peptide effects on growth hormone release, plasma GH by RIA in anesthetized male rats; type: in vivo, rat; conditions: for Plasma GH: 15 min
# Procedure: In this evaluation, the procedures described by W. A. Murphy et al., Endocrinology 109:491-495 (1980), were employed.
# In growth hormone (GH) experiments, male rats (Charles Rivers) were anesthetized with NEMBUTAL® (6 mg per 100 g body weight) which also served to maintain stimulated plasma GH levels. Exactly 30 minutes after the rats were anesthetized, 0.5 mL of saline or the test peptide in saline was administered as a SC bolus. A 1 mL blood sample was drawn from the jugular vein 15 minutes after the injection of the peptide in saline. GH levels were determined using NIADDKD rat GH RIA components.
# [2] = system: growth hormone(GH)-releasing activity; conditions: reported by Spiess et al., Biochemistry 21, 6037; cited from earlier work
compound,measurement,setting,value
"CCCC[C@H](NC(=O)[C@@H](NC(=O)[C@H](CC(=O)O)NC(=O)[C@H](CCC(N)=O)NC(=O)[C@H](CC(C)C)NC(=O)[C@H](CC(C)C)NC(=O)[C@H](CCCCN)NC(=O)[C@H](CCCNC(=N)N)NC(=O)[C@H](C)NC(=O)[C@H](CO)NC(=O)[C@H](CC(C)C)NC(=O)[C@H](CCC(N)=O)NC(=O)CNC(=O)[C@H](CC(C)C)NC(=O)[C@@H](NC(=O)[C@H](CCCCN)NC(=O)[C@H](CCCNC(=N)N)NC(=O)[C@H](Cc1ccc(O)cc1)NC(=O)[C@H](CO)NC(=O)[C@H](CC(N)=O)NC(=O)[C@@H](NC(=O)[C@H](Cc1ccccc1)NC(=O)[C@@H](NC(=O)[C@H](C)NC(=O)[C@H](CC(=O)O)NC(=O)[C@@H](C)NC(=O)[C@@H](N)Cc1c[nH]cn1)[C@@H](C)CC)[C@@H](C)O)C(C)C)[C@@H](C)CC)C(=O)N[C@@H](CO)C(=O)N[C@@H](CCCNC(=N)N)C(N)=O [His^1 -D-Ala^2 -Nle^27, Histidine^1, D-alanine^2, Norleucine^27-human Pancreatic Growth Hormone-Releasing(1-29)-amide] (H-H[dA]DAIFTNSYRKVLGQLSARKLLQDI[Nle]SR-NH2)",Plasma GH,"[1]; dose 0.1 ug/100 g BW SC, saline 214 ± 29",904 ± 111 ng/mL
same,Plasma GH,"[1]; dose 1.0 ug/100 g BW SC, saline 214 ± 29",3379 ± 389 ng/mL
"CC[C@H](C)[C@H](NC(=O)[C@H](C)NC(=O)[C@@H](CC(=O)O)NC(=O)[C@H](C)NC(=O)[C@@H](N)Cc1ccc(O)cc1)C(=O)N[C@@H](Cc1ccccc1)C(=O)N[C@H](C(=O)N[C@@H](CC(N)=O)C(=O)N[C@@H](CO)C(=O)N[C@@H](Cc1ccc(O)cc1)C(=O)N[C@@H](CCCNC(=N)N)C(=O)N[C@@H](CCCCN)C(=O)N[C@H](C(=O)N[C@@H](CC(C)C)C(=O)NCC(=O)N[C@@H](CCC(N)=O)C(=O)N[C@@H](CC(C)C)C(=O)N[C@@H](CO)C(=O)N[C@@H](C)C(=O)N[C@@H](CCCNC(=N)N)C(=O)N[C@@H](CCCCN)C(=O)N[C@@H](CC(C)C)C(=O)N[C@@H](CC(C)C)C(=O)N[C@@H](CCC(N)=O)C(=O)N[C@@H](CC(=O)O)C(=O)N[C@H](C(=O)N[C@@H](CCSC)C(=O)N[C@@H](CO)C(=O)N[C@@H](CCCNC(=N)N)C(N)=O)[C@@H](C)CC)C(C)C)[C@@H](C)O [[D-Asp^3]-hpGRF(1-29)-NH2, D-aspartic Acid^3-human Pancreatic growth hormone-releasing(1-29)-amide]",Plasma GH,"[1]; dose 5.0 μg/100 g BW SC, saline 301 ± 53",3749 ± 808 ng/mL
"CC[C@H](C)[C@H](NC(=O)[C@H](C)NC(=O)[C@H](CC(=O)O)NC(=O)[C@H](C)NC(=O)[C@H](N)Cc1ccc(O)cc1)C(=O)N[C@@H](Cc1ccccc1)C(=O)N[C@H](C(=O)N[C@@H](CC(N)=O)C(=O)N[C@@H](CO)C(=O)N[C@@H](Cc1ccc(O)cc1)C(=O)N[C@@H](CCCNC(=N)N)C(=O)N[C@@H](CCCCN)C(=O)N[C@H](C(=O)N[C@@H](CC(C)C)C(=O)NCC(=O)N[C@@H](CCC(N)=O)C(=O)N[C@@H](CC(C)C)C(=O)N[C@@H](CO)C(=O)N[C@@H](C)C(=O)N[C@@H](CCCNC(=N)N)C(=O)N[C@@H](CCCCN)C(=O)N[C@@H](CC(C)C)C(=O)N[C@@H](CC(C)C)C(=O)N[C@@H](CCC(N)=O)C(=O)N[C@@H](CC(=O)O)C(=O)N[C@H](C(=O)N[C@@H](CCSC)C(=O)N[C@@H](CO)C(=O)N[C@@H](CCCNC(=N)N)C(N)=O)[C@@H](C)CC)C(C)C)[C@@H](C)O [[D-Tyr^1]-hpGRF(1-29)-NH2, D-tyrosine-1-Human Pancreatic Growth Hormone-Releasing(1-29)-Amide]",Plasma GH,"[1]; dose 1.2 μg/100 g BW SC, saline 541 ± 64",1463 ± 263 ng/mL
same,Plasma GH,"[1]; dose 3.0 μg/100 g BW SC, saline 541 ± 64",3247 ± 622 ng/mL
"YADAIFTNSYRRVLGQLSARRLLQDIMSR-NH2 [[Arg^12, 21]-hpGRF(1-29)-NH2, Arginine^12,21-human Pancreatic Growth Hormone-Releasing (1-29)-amide]",Plasma GH,"[1]; dose 10 μ/100 g BW SC, saline 27% ± 54",688 ± 84 ng/mL
same,Plasma GH,"[1]; dose 25 μ/100 g BW SC, saline 27% ± 54",1613 ± 302 ng/mL
"CC[C@H](C)[C@H](NC(=O)[C@H](C)NC(=O)[C@H](CC(=O)O)NC(=O)[C@H](C)NC(=O)[C@@H](N)Cc1ccc(O)cc1)C(=O)N[C@@H](Cc1ccccc1)C(=O)N[C@H](C(=O)N[C@@H](CC(N)=O)C(=O)N[C@@H](CO)C(=O)N[C@H](Cc1ccc(O)cc1)C(=O)N[C@@H](CCCNC(=N)N)C(=O)N[C@@H](CCCCN)C(=O)N[C@H](C(=O)N[C@@H](CC(C)C)C(=O)NCC(=O)N[C@@H](CCC(N)=O)C(=O)N[C@@H](CC(C)C)C(=O)N[C@@H](CO)C(=O)N[C@@H](C)C(=O)N[C@@H](CCCNC(=N)N)C(=O)N[C@@H](CCCCN)C(=O)N[C@@H](CC(C)C)C(=O)N[C@@H](CC(C)C)C(=O)N[C@@H](CCC(N)=O)C(=O)N[C@@H](CC(=O)O)C(=O)N[C@H](C(=O)N[C@@H](CCSC)C(=O)N[C@@H](CO)C(=O)N[C@@H](CCCNC(=N)N)C(N)=O)[C@@H](C)CC)C(C)C)[C@@H](C)O [D-Tyr^10, D-tyrosine-10-human Pancreatic Growth Hormone-Releasing(1-29)-amine]",% Potency,"[1]; by comparison to pooled standards GRF(1-29)-NH2, limits in parenthesis",228 (257-331) %
same,Plasma GH,"[1]; dose 8 (unit not given), SC",1674 ± 586
same,Plasma GH,"[1]; dose 20 (unit not given), SC",3975 ± 635
"CC[C@H](C)[C@H](NC(=O)[C@H](C)NC(=O)[C@H](CC(=O)O)NC(=O)[C@H](C)NC(=O)[C@@H](N)Cc1ccc(O)cc1)C(=O)N[C@@H](Cc1ccccc1)C(=O)N[C@H](C(=O)N[C@@H](CC(N)=O)C(=O)N[C@@H](CO)C(=O)N[C@@H](Cc1ccc(O)cc1)C(=O)N[C@@H](CCCNC(=N)N)C(=O)N[C@@H](CCCCN)C(=O)N[C@H](C(=O)N[C@@H](CC(C)C)C(=O)NCC(=O)N[C@@H](CCC(N)=O)C(=O)N[C@@H](CC(C)C)C(=O)N[C@@H](CO)C(=O)N[C@@H](C)C(=O)N[C@@H](CCCNC(=N)N)C(=O)N[C@@H](CCCCN)C(=O)N[C@@H](CC(C)C)C(=O)N[C@@H](CC(C)C)C(=O)N[C@@H](CCC(N)=O)C(=O)N[C@@H](CC(=O)O)C(=O)N[C@H](C(=O)N[C@@H](CCSC)C(=O)N[C@@H](CO)C(=O)N[C@@H](CCCNC(=N)N)C(N)=O)[C@@H](C)CC)C(C)C)[C@@H](C)O [hpGRF(1-29)-NH2, reference compound]",intrinsic biological activity,[2],full intrinsic biological activity
same,Plasma GH,"[1]; dose 7.2 μg/100 g BW SC, saline 342 ± 53",1686 ± 255 ng/mL
same,Plasma GH,"[1]; dose 10.0 μg/100 g BW SC, saline 454 ± 62",2057 ± 187 ng/mL
same,Plasma GH,"[1]; dose 10.0 μg/100 g BW SC, saline 541 ± 64",1627 ± 380 ng/mL
same,Plasma GH,"[1]; dose 18.0 μg/100 g BW SC, saline 342 ± 53",2842 ± 295 ng/mL
same,Plasma GH,"[1]; dose 25.0 μg/100 g BW SC, saline 454 ± 62",4033 ± 284 ng/mL
same,Plasma GH,"[1]; dose 25.0 μg/100 g BW SC, saline 541 ± 64",2520 ± 420 ng/mL
same,Plasma GH,"[1]; pooled standards, dose 10 ug/100 g BW SC",1185 ± 74 ng/mL
same,Plasma GH,"[1]; pooled standards, dose 25 ug/100 g BW SC",2570 ± 121 ng/mL
"CCCC[C@H](NC(=O)[C@@H](NC(=O)[C@H](CC(=O)O)NC(=O)[C@H](CCC(N)=O)NC(=O)[C@H](CC(C)C)NC(=O)[C@H](CC(C)C)NC(=O)[C@H](CCCCN)NC(=O)[C@H](CCCNC(=N)N)NC(=O)[C@H](C)NC(=O)[C@H](CO)NC(=O)[C@H](CC(C)C)NC(=O)[C@H](CCC(N)=O)NC(=O)CNC(=O)[C@H](CC(C)C)NC(=O)[C@@H](NC(=O)[C@H](CCCCN)NC(=O)[C@H](CCCNC(=N)N)NC(=O)[C@H](Cc1ccc(O)cc1)NC(=O)[C@H](CO)NC(=O)[C@@H](CC(N)=O)NC(=O)[C@@H](NC(=O)[C@H](Cc1ccccc1)NC(=O)[C@@H](NC(=O)[C@H](C)NC(=O)[C@@H](CC(=O)O)NC(=O)[C@H](C)NC(=O)[C@@H](N)Cc1ccc(O)cc1)[C@@H](C)CC)[C@@H](C)O)C(C)C)[C@@H](C)CC)C(=O)N[C@@H](CO)C(=O)N[C@@H](CCCNC(=N)N)C(N)=O [D-Asp^3 -D-Asn^8 -Nle^27, D-aspartic acid^3, D-asparagine^8, Norleucine^27-human Pancreatic Growth Hormone-Releasing(1-29)-amide]",Plasma GH,"[1]; dose 0.1 ug/100 g BW SC, saline 383 ± 79",810 ± 86 ng/mL
same,Plasma GH,"[1]; dose 1.0 ug/100 g BW SC, saline 383 ± 79",3213 ± 590 ng/mL

# From patent US5416073A, “Growth hormone-releasing peptides and method of treating animals, therewith” (The Adminstrators of the Tulane Educational Fund, priority 1985, dated 1995)
